# According to patent publication US20220380473A1, “ANTI-GAL3 ANTIBODIES AND USES THEREOF” (TrueBinding, Inc., priority 2019, published 2022):
# Legend:
# hGal3 peptide = test: Gal3 peptide library ELISA (Example 25); type: binding, human; settings: peptide array ELISA
# Method: To identify the epitopes to which Gal3 antibodies with and without Gal3-TIM3 blocking activity bound, a library of 20 amino acid peptides representing portions of Gal3, summarized in Table 24.1, was produced and the ability to bind Gal3 antibodies was evaluated by ELISA.
# At least 2 μg/ml of hGal3 peptide in 50 μl of PBS or 0.1 μg/ml of full-length human Gal3 protein (GenScript) and human Galectin-3 protein (Acro Biosystems, GA3-H5129) were diluted in PBS (Corning, 21-030-CM) to concentrations of at least 2 μg/ml or 0.1 μg/ml, respectively, and added to the wells of a 96-well ELISA plate (Thermo Fisher, 44-2404-21). After incubating the plate at 4° C. overnight, the plate was washed three times with PBST (PBS with 0.05% Tween 20 [VWR, 0777]). The plate was then blocked for an hour with 2% BSA (EMD Millipore, 126609) in PBST at room temperature with gentle rocking. Thereafter, the 2% BSA in PBST was discarded and human Galectin-3 hybridoma supernatants or antibodies were diluted in 2% BSA in PBST to concentrations of at least 0.1 μg/ml and added to the wells. The plate was incubated for an hour at room temperature with gentle rocking and then washed three times with PBST. […] The reaction was stopped with 1M HCl (JT Baker, 5620-02) and read using a plate reader (Molecular Devices) at absorbance of 450 nm.
# [1] = target: T1, association of GAL3 and TIM3 (Homo sapiens, UniProt P17931); test: GAL3-TIM3 blocking ELISA (Examples 24, 27); type: binding
# T1 construct: full-length human Galectin-3 protein (Acro Biosystems, GA3-H5129); linker-spaced 6-histidine tag; purchased Acro Biosystems GA3-H5129 (Gal3); TM3-H5229 (TIM-3)
# Method: Positively scoring wells were evaluated for the ability to block association of GAL3 and TIM3. To identify GAL3-targeted antibodies with the ability to block the interaction of GAL3 and TIM3, purified GAL3 and TIM3 proteins were incubated in the presence of GAL3-immunization hybridoma supernatants described above, or without antibody, and protein interaction was evaluated by ELISA. Human Galectin-3 protein (Acro Biosystems, GA3-H5129) was diluted in PBS (Corning, 21-030-CM) to a concentration of 3 μg/ml and added to the wells of a 96-well ELISA plate (Thermo Fisher, 44-2404-21). After incubating the plate at 4° C. overnight, the plate was washed three times with PBST (PBS with 0.05% Tween 20 [VWR, 0777]). The plate was then blocked for an hour with 2% BSA (EMD Millipore, 126609) in PBST at room temperature with gentle rocking. Thereafter, the 2% BSA in PBST was discarded and antibody or inhibitor (3-fold dilutions beginning at 20 μg/ml, 60 μg/ml, or 180 μM) in 2% BSA in PBST was added to the wells. Afterwards, 2 μg/ml of human TIM3 (Aero Biosystems, TM3-H5229) in 2% BSA in PBST was added to the antibody or inhibitor in the wells in a 1:1 ratio. The plate was incubated for an hour at room temperature with gentle rocking. […] The reaction was stopped with 1M HCl (JT Baker, 5620-02) and read using a plate reader (Molecular Devices) at absorbance of 450 nm.
# Galectin-3 = Galectin-3 (Homo sapiens, UniProt P17931); test: SPR (BiacoreT200) binding affinity; settings: 25° C., read-out: hGal-3 KD
# Method: GAL3-binding antibodies were evaluated for their binding affinity by SPR. Kinetics experiments were performed on BiacoreT200 at 25° C. in high performance mode. Ligand proteins, purified antibodies were captured onto a CM5 chip coupled with anti-human Fc or anti-mouse Fc antibody, three antibodies at a time onto flow cell #2, 3, and 4, respectively, while flow cell #1 was used as reference. The analyte Galectin-3 in HBS-EP buffer was injected over all four flow cells at concentrations of 100, 50, 25, 12.5, 6.25, 3.125 and 0 nM at a flow rate of 30 μL/min. The complex was allowed to associate and dissociate for 240 and 300 seconds, respectively. The surfaces were regenerated with a 30 second injection of 10 mM Glycine pH 1.7 (flow rate 30 μL/min). The data were fit to a simple 1:1 interaction model using the global data analysis option available within BiacoreT200 Evaluation software V2.0. The affinity of Gal3 monoclonal antibodies was confirmed to be […] 30 nM for all antibodies studied (Table 24.1). Antibodies with affinity less than 2E-7 were selected for further characterization.
# T1 sequence (P17931 2-250 limits assumed): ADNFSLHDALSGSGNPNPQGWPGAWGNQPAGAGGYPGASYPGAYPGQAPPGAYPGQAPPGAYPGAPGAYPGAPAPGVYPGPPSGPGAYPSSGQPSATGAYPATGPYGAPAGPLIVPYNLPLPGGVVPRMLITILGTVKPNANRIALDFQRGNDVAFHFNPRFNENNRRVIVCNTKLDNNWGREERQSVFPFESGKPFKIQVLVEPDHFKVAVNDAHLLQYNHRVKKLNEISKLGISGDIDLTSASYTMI
# Sequence of Galectin-3 (P17931 whole entry): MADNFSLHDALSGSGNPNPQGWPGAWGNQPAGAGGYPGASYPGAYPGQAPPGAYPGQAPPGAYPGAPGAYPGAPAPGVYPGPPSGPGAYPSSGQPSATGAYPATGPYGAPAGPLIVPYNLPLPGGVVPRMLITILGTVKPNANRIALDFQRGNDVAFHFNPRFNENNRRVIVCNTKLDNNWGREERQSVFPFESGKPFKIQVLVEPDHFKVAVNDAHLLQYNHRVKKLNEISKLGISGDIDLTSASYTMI
molecule,measurement,setting,value
846.14A2: Gal3-binding antibody named only in the peptide 7 list (antibody) heavy: QIQLVQSGPELKKPGETVKISCKASGYTFTNYGMNWVKQAPGKGLKWMGWINTYTGEPTYAGDLKGRFAFSLETSASTAYLQINNLKNEDTATYFCVRYTMDYWGQGTSVTVSSASTKGPSVFPLAPCSRSTSESTAALGCLVKDYFPEPVTVSWNSGALTSGVHTFPAVLQSSGLYSLSSVVTVPSSSLGTKTYTCNVDHKPSNTKVDKRV[human IgG4 Fc with S228P (EU numbers) cut from this listing] light: QAVVTQESALTTSPGETVTLTCRSSTGAVTTSNYANWVQEKPDHLFTGLIGGINNRVPGVPARFSGSLIGDKAALTITGAQTEDEAIYFCALWYSNHWVFGGGTKLTVLRTVAAPSVFIFPPSDEQLKSGTASVVCLLNNFYPREAKVQWKVDNALQSGNSQESVTEQDSKDSTYSLSSTLTLSKADYEKHKVYACEVTHQGLSSPVTKSFNRGEC,Gal3 peptide bound,hGal3 peptide,peptide 7
IMT006-8: humanized anti-Gal3 antibody (antibody) heavy: QVQLVQSGAEVKKPGASVKVSCKASGYSFTNYYIHWVRQAPGQRLEWMGWIYPGSGNTNYNEKFQGRVTLTADTSASTTYMELSSLRSEDTAVYYCSTAPGGFDVWGQGTTVTVSSASTKGPSVFPLAPCSRSTSESTAALGCLVKDYFPEPVTVSWNSGALTSGVHTFPAVLQSSGLYSLSSVVTVPSSSLGTKTYTCNVDHKPSNTKVDKRV[human IgG4 Fc with S228P (EU numbers) cut from this listing] light: DIVMTQSPLSLPVTPGEPASISCRSSKSLLHSDGITYLYWYLQKPGQSPQLLIYRMSNLASGVPDRFSGSGSGTDFTLKISRVEAEDVGVYYCAQMLEFPLTFGQGTKLEIKRTVAAPSVFIFPPSDEQLKSGTASVVCLLNNFYPREAKVQWKVDNALQSGNSQESVTEQDSKDSTYSLSSTLTLSKADYEKHKVYACEVTHQGLSSPVTKSFNRGEC,IC50,"[1]; titration series, purified GAL3 and TIM3",2.8 nM
9H2.2H1: murine anti-Gal3 antibody (antibody) heavy: QVQLQQPGAELVGPGSSVKLSCKASGYTFTNYWIHWVKQRPLQGLEWIGNIDPSDSETHYNQKFKDKATLTVDKSSSTAYMQLSSLTSEDSAVYYCARHGYYDYWGQGTTLTVSSASTKGPSVFPLAPCSRSTSESTAALGCLVKDYFPEPVTVSWNSGALTSGVHTFPAVLQSSGLYSLSSVVTVPSSSLGTKTYTCNVDHKPSNTKVDKRV[human IgG4 Fc with S228P (EU numbers) cut from this listing] light: DIVMTQSHKFMSTSVGDRVSITCKASQDVSTAVAWYQQKPGQSPKLLIYWASTRHTGVPDRFTGSGSGTDYTLTISSVQAEDLALYYCQQHYTTPLTFGAGTKLELKRTVAAPSVFIFPPSDEQLKSGTASVVCLLNNFYPREAKVQWKVDNALQSGNSQESVTEQDSKDSTYSLSSTLTLSKADYEKHKVYACEVTHQGLSSPVTKSFNRGEC,Kd,Galectin-3,18.4 nM
same,GAL3-TIM3 Blocking @ 3 ug/mL,[1]; 3 ug/mL antibody,6%
